We go through two molecules from patent US20220387487A1 (ALETA BIOTHERAPEUTICS, published 2022).

For orientation: EC50 means the concentration giving half of the maximal effect. A higher EC50 goes with a need for much substance.

Assay [1] concerns the target T1, CLL-1 (CLEC12A) on CLL-1 positive cell lines (U937, OCI-AML-5) (human, UniProt Q5QGZ9 1-265).
T1 sequence: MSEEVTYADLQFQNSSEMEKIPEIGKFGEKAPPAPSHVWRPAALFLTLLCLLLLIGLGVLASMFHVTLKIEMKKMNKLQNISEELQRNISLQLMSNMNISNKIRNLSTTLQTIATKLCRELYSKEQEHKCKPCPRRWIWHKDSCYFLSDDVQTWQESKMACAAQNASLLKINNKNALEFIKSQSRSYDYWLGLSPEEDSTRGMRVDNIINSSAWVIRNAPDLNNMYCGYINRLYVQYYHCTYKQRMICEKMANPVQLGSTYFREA
The assay can be described thus: cell-based or functional assay.

Assay [2] concerns the target T1, CLL-1 (CLEC12A) on CLL-1 positive cell …. The assay can be described thus: cell-based or functional assay. This is another data set of the same source.
For assay [3] the target is unchanged. Briefly: flow cytometry on CLL-1 positive U937 cells, FMC63-PE detection.
Assay [4] has the same target. Briefly: flow cytometry on U937 cells, purified fusion protein, a-His-PE detection, % Binding. (In general: In flow cytometry, cells or beads pass a laser one at a time.)
For assay [5] the target is unchanged. Briefly: flow cytometry on CLL-1 positive U937 cells, expressed fusion protein, detection with FMC63-PE, % Binding.

Several values for one entry are separate records, joined by “and”; a condition that tells them apart may be missing. Equal values may be shown once.

B1: anti-CLL-1 scFv-anti-CLL-1 VHH(2H3)-CD19 variant (construct #357) (other)
chain: DMAQVQLQESGPGLVKPSETLSLTCVVSGGSISSSNWWSWVRQPPGKGLEWIGEIYHSGSPDYNPSLKSRVTISVDKSRNQFSLKLSSVTAADTAVYYCAKVSTGGFFDYWGQGTLVTVSSGGGGSGGGGSGGGGSEIELTQSPSSLSASVGDRVTIT[about 80 residues left out]FGPGTKVEIKRTGGGGSGGGGSGGGGSGGGGSQVQLQESGGGLVQAGGSLRLSCVASGSIRSINVMGWYRQAPGKQRELVAACASDGNTYYADSVKGRFTISRDNAEKTVYLQMNNLKPDDTAVYYCDANSRGNYYSGQGTQVTVSSTSGPGGQGAGGGGSGGGGSGGGGSGGGGSPEEPLVVKVEEGDTAALWCLKGTSDGPTQQLTWSRESPLKPFLKYSLGVPGLGVHVRPDAISVVIRNVSQQMGGFYLCQPGPPSEKAWQPGWTVNVEGSGELFRWNVSDLGGLGCGLKNRSSEGPSSPSGKLMSPKLYVWAKDRPEIWEGEPPCLPPRDSLNQSLSRDLTVAPGSTLWLSCGVPPDSVSRGPLSWTHVHPKGPKSLLSLELKDDRPARDMWVMGTSLMLPRATAQDAGKWYCHRGNLTMSFHLEITARPSRHHHHHH
notes: Biparatopic fusion: anti-CLL-1 scFv, anti-CLL-1 VHH 2H3, CD19 variant, His tag; also called biparatopic fusion protein #357; HIS-tagged biparatopic construct
For B1, in assay [1], the “CAR-CD19 cytotoxicity relative to fusion protein #330, E:T 5:1” value was around 15 fold; the “CAR-CD19 cytotoxicity relative to fusion protein #330, third assay, E:T 5:1” value is around 15 fold; the “potency of killing relative to fusion protein #321” value was around 25 fold; the “potency of killing relative to fusion protein #330” value is around 8 fold. Besides, the “CLEC12A-cell cytotoxicity (IC50 n = 2-3)” value in assay [2] stood at 0.65 pM. Moreover, in assay [3], the EC50 was 0.7 nM. In addition, the EC50 in assay [4] is 0.000219 µg/mL and 0.0031 nM. Moreover, in assay [5], the EC50 was determined as 0.0493 µg/mL.

B2: CD19-anti-CLL-1 scFv (construct #186) (other)
chain: PEEPLVVKVEEGDNAVLQCLKGTSDGPTQQLTWSRESPLKPFLKLSLGLPGLGIHMRPLAIWLFIFNVSQQMGGFYLCQPGPPSEKAWQPGWTVNVEGSGELFRWNVSDLGGLGCGLKNRSSEGPSSPSGKLMSPKLYVWAKDRPEIWEGEPPCLPPRDSLNQSLSQDLTMAPGSTLWLSCGVPPDSVSRGPLSWTHVHPKGPKSLLSLELKDDRPARDMWVMETGLLLPRATAQDAGKYYCHRGNLTMSFHLEITARPGGGGSGGGGSGGGGSGGGGSDMAQVQLQESGPGLVKPSETLSLTCVVSGGSISSSNWWSWVRQPPGKGLEWIGEIYHSGSPDYNPSLKSRVTISVDKSRNQFSLKLSSVTAADTAVYYCAKVSTGGFFDYWGQGTLVTVSSGGGGSGGGGSGGGGSEIELTQSPSSLSASVGDRVTIT[about 80 residues left out]FGPGTKVEIKRTHHHHHH
notes: Fusion of wild type CD19 extracellular domain, linker, anti-CLL-1 (CLEC12A) scFv and His tag; also called scFv fusion protein
For B2, the “CLEC12A-cell cytotoxicity (IC50 n = 2-3)” value in assay [2] was determined as 100 pM. Further, the EC50 in assay [3] was 10 nM; in assay [4], 1.83 µg/mL and 32.6 nM; in assay [5], 0.566 µg/mL.
